Among the data in PubChem BioAssay AID1745853 (National Center for Advancing Translational Sciences (NCATS), 2022) are activity change, negative = inhibition values, retold here.

The structures appear in SMILES notation. Where “and” joins values, the source holds several entries; their conditions need not be identical. Identical values can stand only once. Some of the results follow. Further columns of the screen follow, without active or inactive calls.

What all share (assay): Primary Screen for Target Class Profiling of Small Molecule Inhibitors of Methyltransferases
Experiment [1] has as its target Glycine N-methyltransferase (Homo sapiens) (UniProt Q14749). As to conditions: purified enzyme, MTase-Glo SAH luminescence; measured here: GNMT inhibition; at 40 µM; stronger effect = lower value. An excerpt:
(§1) PI: Matthew D. Hall Ph.D. and Quinlin M. Hanson Ph.D.
(§2) National Center for Advancing Translational Sciences (NCATS)
(§3) National Institute of Health (NIH), Rockville, MD
(§4) Target class profiling (TCP) is a chemical biology approach amenable to investigating understudied biological targets. TCP is achieved by developing a generalizable assay platform and applying it to screen a curated set of compound libraries against representative members of a target class. Small molecule methyltransferases (SMMTase) are a subclass of methyltransferase that act on metabolites to modulate signaling pathways, metabolize xenobiotics, or balance the available methyl pool. We screened four curated libraries totaling 27,574 unique compounds against the SMMTases nicotinamide N-methyltransferase (NNMT), phenylethanolamine N-methyltransferase (PNMT), histamine N-methyltransferase (HNMT), glycine N-methyltransferase (GNMT), catechol O-methyltransferase (COMT), and guanidinoacetate N-methyltransferase (GAMT). The data generated by this TCP can be leveraged for informed tool molecule development. For example, in the associated publication we identified a chemotype of HNMT-selective inhibitors. Additionally, we identified a putative SMMTase-selective inhibitor with potential as a tool molecule for studying broader methyltransferase biology.
(§5) High-through put screening assays were developed at the National Center for Advancing Translational Science (NCATS) for the enzymes NNMT, PNMT, HNMT, GNMT, COMT, and GAMT. Enzymatic activity was measured as a function of SAM cofactor conversion using the MTase Glo kit (Promega) for all enzymes. All assays were performed in 1536-well format with substrates and SAM concentrations at KM values. Enzyme concentration and assay timing were optimized for 10-20% SAM conversion. Initial screening of 27,574 compounds was done as single-point assays using the highest compound concentration (40 uM). […] These compounds were replated in 11-point dose response and assayed against NNMT, PNMT, HNMT, GNMT, COMT, GAMT, and a counter-assay. The IC50 and efficacy (maximal response) values were determined for each dose-response curve. These values are also accounted for in the area under the curve (AUC) values.
(§6) PROTOCOL TABLE (as described by Inglese J, Shamu CE and Guy RK. 2007)
(§7) SEQUENCE No. (e.g., 1, 2, 3, etc.); […] (e.g., Cells, Incubation, Reagent, etc.); VALUE; DESCRIPTION.
(§8) 1; Reagent; 2 uL; SMMTase Enzyme (2x) in reaction buffer, columns 1- 48.
(§9) 2; Reagent; 1 uL; SAM (4x) in reaction buffer, columns 1-48.
(§10) 3; Controls; 23 nL; DMSO in column 4; sinefungin in DMSO (0 uM - 40 uM) in 7-point 1:2 dilution series (n = 2) in column 2.
(§11) 4; Compounds; 23 nL; Columns 5-48.
(§12) 5; Reagent; 1 uL; Substrate (4x) in reaction buffer, columns 2-48.
(§13) 6; Time; 20-30 min; Incubation.
(§14) 7; Reagent; 1 uL; MTase-Glo reagent (5X), columns 1-48.
(§15) 8; Time; 30 min; Incubation.
(§16) 9; Reagent; 5 uL; MTase-Glo Detection reagent, columns 1-48.
(§17) 10; Time; 30 min; Incubation, luminescence evolution.
(§18) 11; Detection; Luminescence; ViewLux uHTS Microplate Imager (PerkinElmer).
(§19) NOTES (numbers refer to Sequence numbers above)
(§20) 1, 2, 5. White Medium Binding Greiner 1536-well plates (Cat #789175-F, Greiner Bio-One, Monroe, NC); Reaction buffer: 50 mM Tris, pH 8.0, 3 mM MgCl2, 1 mM EDTA, 50 mM NaCl, 1 mM DTT, and 0.1 mg/mL BSA. Evaporation was prevented by covering assay plates with metal lids containing holes to allow gas diffusion.
(§21) 1. Six SMMTase were profiled: HNMT, GNMT, PNMT, COMT, NNMT, GAMT
(§22) 5. The corresponding substrate was used for each enzyme: HNMT - 5.3 uM Histamine; GNMT - >500 uM Glycine; PNMT - 16.2 uM Norephinephrine; COMT - 13.7 uM Norephinephrine; NNMT - 3.8 uM Nicotinamide; GAMT - 2.5 uM Guanidinoacetate.6, 8, 10. Room temperature
(§23) 6. Final reaction conditions: 10 nM COMT, 5 uM SAM, 15 uM norepinephrine, 50 mM Tris, pH 8.0, 3 mM MgCl2, 1 mM EDTA, 50 mM NaCl, 1 mM DTT, and 0.1 mg/mL BSA; refer to tables 2 and S1 for specific timing.
8. […]

For experiment [2], the target named is Guanidinoacetate N-methyltransferase (Homo sapiens) (UniProt Q14353). The settings on record: purified enzyme, MTase-Glo SAH luminescence; measured here: GAMT inhibition; at 40 µM; stronger effect = lower value.
From the text: as §1, §2, §3, §4, §5, §6, §7, §8, §9, §10, §11, §12, §13, §14, §15, §16, §17, §18, §19, §20, §21, §22, §23
8. […]

Experiment [3] deals with Histamine N-methyltransferase (Homo sapiens) (UniProt P50135). The settings on record: purified enzyme, MTase-Glo SAH luminescence; measured here: HNMT inhibition; at 40 µM; stronger effect = lower value.
From the text: as §1, §2, §3, §4, §5, §6, §7, §8, §9, §10, §11, §12, §13, §14, §15, §16, §17, §18, §19, §20, §21, §22, §23
8. […]

Experiment [4] deals with Nicotinamide N-methyltransferase (Homo sapiens) (UniProt P40261). The settings on record: purified enzyme, MTase-Glo SAH luminescence; measured here: NNMT inhibition; at 40 µM; stronger effect = lower value.
From the text: as §1, §2, §3, §4, §5, §6, §7, §8, §9, §10, §11, §12, §13, §14, §15, §16, §17, §18, §19, §20, §21, §22, §23
8. […]

Experiment [5] deals with Phenylethanolamine N-methyltransferase (Homo sapiens) (UniProt P11086). As to conditions: purified enzyme, MTase-Glo SAH luminescence; measured here: PNMT inhibition; at 40 µM; stronger effect = lower value.
From the text: as §1, §2, §3, §4, §5, §6, §7, §8, §9, §10, §11, §12, §13, §14, §15, §16, §17, §18, §19, §20, §21, §22, §23
8. […]
% is set by controls: 0 for no effect and ±100 for the full control effect.

Consider `C/C=C(\C)C(=O)O[C@H]1C=CC(=O)O[C@H]1/C=C/[C@H](O)[C@@H](C)O`, for which the activity change, negative = inhibition in experiment [1] is 0.207%; in experiment [2], 5.89%; in experiment [3] it was 12.1%; in experiment [4], -5.16%; in experiment [5], 2.04%.
For `C=CC(C)=C[C@@]1(C)SC(=O)C(C)=C1O`, in that order: 0.538%, 13.2%, 7.24%, 0.273% and 7.26%.
On to `CC(=O)Nc1ccc(NC(=S)NC(=O)c2ccc(C(C)(C)C)cc2)cc1`, for which the activity change, negative = inhibition in experiment [1] was 7.12%; in experiment [2], 11.8% and 2.01%; in experiment [3], 8.09%; in experiment [4] it was -7.03% and -11.8%; in experiment [5], 6.84% and 7.42%.
Turning to `CCOc1cc(C(=O)N2CCC(N3CCN(C)CC3)CC2)ccc1Nc1ncc2c(n1)N(C1CCCC1)c1ccccc1C(=O)N2C`, the activity change, negative = inhibition is -4.4% in experiment [1]; 13.1% in experiment [2]; -18.3% in experiment [3]; -25.1% in experiment [4]; 3.31% in experiment [5].
Take `N#Cc1c(C2CCNCC2)cc(-c2c(O)cccc2OCC2CC2)nc1N`: the activity change, negative = inhibition in experiment [1] was -11.6%; in experiment [2], -1.32%; in experiment [3] it was -12.6%; in experiment [4] it was -69.2%; in experiment [5], -7.72%.
`CCCCN1C(=O)c2cc(C(=O)Nc3ccc(OCC)cc3)nn2CC1(C)C(=O)NC1CCCC1` (stereo not given): the activity change, negative = inhibition was 3% in experiment [1]; 4.07% in experiment [2]; -16.4% in experiment [3]; 4.08% in experiment [4]; 2.06% in experiment [5].
For the compound `O=c1cc(-c2ccc(O)c(O)c2)oc2cc(O)cc(O)c12`, the activity change, negative = inhibition in experiment [1] is -18.7%; in experiment [2], 0%; in experiment [3] it was 5.65%; in experiment [4], -7.84%; in experiment [5], -15.8%.
For `CCc1ccccc1Nc1nn2c(=O)c3ccc(C(=O)NCCCOC(C)C)cc3nc2s1`, in that order: 3.21%, 0.854%, 4.15%, -4.85% and -0.799%.
Taken in the same sequence, the figures for `Cc1cc2[nH]c(=O)[nH]c2cc1S(=O)(=O)NCc1ccc(F)cc1` were -1.33%, 3.27%, -9.05%, -9.81% and -10.1%.
Taken in the same sequence, the figures for `Fc1cccc(-c2nnn3c2nc(NCCc2ccccc2)c2ccccc23)c1` were 0.761%, 3.76%, -78.6%, 3.74% and -6.02%.
Take `CCCCN1C(=O)c2cc(C(=O)Nc3ccccc3CC)nn2CC1(C)C(=O)NC1CCCC1` (stereo not given): the activity change, negative = inhibition is -0.134% in experiment [1]; 3.21% in experiment [2]; -3.53% in experiment [3]; -1.78% in experiment [4]; -0.128% in experiment [5].
For the compound `COc1cccc([S+](=O)([O-])N2CCn3cc(C(=O)NCc4ccc(Cl)nc4)nc3C2)c1`, the activity change, negative = inhibition in experiment [1] is -13%; in experiment [2], -7.22%; in experiment [3] it was -1.93%; in experiment [4], -13%; in experiment [5], -11.6%.
In the case of `COc1ccccc1CC(=O)N1CCN(c2cc(-c3cccs3)[nH]n2)CC1`, the activity change, negative = inhibition in experiment [1] was -5.89%; in experiment [2], -8.38%; in experiment [3] it was -3.06%; in experiment [4] it was -10.6%; in experiment [5] it was -8.46%.
Taken in the same sequence, the figures for `COc1ccc(-c2cc3n(n2)CC(C)(C(=O)NCc2ccccc2OC)N(c2ccc(C)cc2C)C3=O)cc1` (stereo not given) were 2.72%, 1.5%, 3.6%, -5.61% and -3.38%.
Regarding `CC(C)(CC(=O)N1CCCC1)NCC(=O)N1C[C@@H](F)C[C@H]1C#N`, the activity change, negative = inhibition in experiment [1] was 7.13%; in experiment [2], 8.04%; in experiment [3], 5.82%; in experiment [4] it was -7.18%; in experiment [5] it was 2.96%.
